Measured values from PMC6919601, “Identification of Plasmodium dipeptidyl aminopeptidase allosteric inhibitors by high throughput screening” (PLoS ONE, 2019).
Screen size: about 110,000 compounds; about 230 (0.21%) showed an effect of 50% or more. Some of the results follow.

The compounds below were run against DPAP1 (Plasmodium falciparum, UniProt Q8IIJ9) (assay: primary screen, percent inhibition; read by cleavage of a fluorogenic dipeptide substrate; higher = more effect of the substance).
Set-up: species or system P. falciparum D10 trophozoite lysates; single well
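Also: 30 min substrate incubation versus DMSO and 10 µM JCP410 controls.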

Chain of DPAP1 (Q8IIJ9 whole entry, looked up): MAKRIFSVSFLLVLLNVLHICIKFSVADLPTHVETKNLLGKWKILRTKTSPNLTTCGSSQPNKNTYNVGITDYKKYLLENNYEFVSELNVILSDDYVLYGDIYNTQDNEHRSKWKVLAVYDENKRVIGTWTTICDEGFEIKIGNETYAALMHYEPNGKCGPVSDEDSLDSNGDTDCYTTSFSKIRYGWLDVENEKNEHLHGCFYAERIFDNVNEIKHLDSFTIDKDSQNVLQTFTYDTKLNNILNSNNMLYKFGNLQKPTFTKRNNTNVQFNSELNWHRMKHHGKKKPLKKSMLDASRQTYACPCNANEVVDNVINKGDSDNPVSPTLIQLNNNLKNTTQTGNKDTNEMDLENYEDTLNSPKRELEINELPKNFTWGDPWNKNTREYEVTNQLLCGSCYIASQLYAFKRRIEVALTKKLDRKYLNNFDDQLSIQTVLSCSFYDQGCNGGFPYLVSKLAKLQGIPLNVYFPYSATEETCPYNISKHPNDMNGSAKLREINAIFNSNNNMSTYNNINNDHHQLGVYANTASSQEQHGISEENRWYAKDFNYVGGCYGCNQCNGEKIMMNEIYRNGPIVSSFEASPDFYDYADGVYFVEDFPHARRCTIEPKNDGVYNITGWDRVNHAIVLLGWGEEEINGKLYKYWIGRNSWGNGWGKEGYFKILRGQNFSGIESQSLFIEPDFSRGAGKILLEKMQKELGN

| SMILES | % Inhibition @ 10 uM [%] |
| --- | --- |
| CCC1CCc2c(sc(NC(=O)C3CC=CCC3C(=O)O)c2C#N)C1 (centres unmarked) | 2.01 |
| O=S(=O)(NCCSc1ccc(Cl)cc1)c1ccc(Br)cc1 | 2.05 |
| O=C(NCCCc1ccccc1)c1cc2c(s1)CS(=O)(=O)C2 | -3.84 |
| COCCOC(=O)C1=C(C)OC(N)=C(C#N)C1c1ccc(C)cc1 (centres unmarked) | 9.09 |
| CC(O)CN(Cc1ccccc1Cl)CC(C)O (centres unmarked) | 3.48 |
| CC(C)Oc1ccc(OCCn2c(S(=O)(=O)O)nc3c(N)ncnc32)cc1 | -3.5 |
| OC1(C#CCN2CCCC2)CCCCC1 | -0.128 |
| CCOc1cc(C)c(Cl)cc1S(=O)(=O)N1CCC(C(N)=O)CC1 | -7.17 |
| COc1ccc(NC2=C(Cl)C(=O)N(c3ccc(C)cc3)C2=O)cc1 | 4.75 |
| CCCCNC(=O)CS(=O)Cc1nc(-c2ccc(OC)cc2)oc1C (centres unmarked) | 2.16 |
| O=C(O)COc1ccc(NC(=O)c2ccco2)cc1 | 0.00178 |
| CC1CCCCC1NS(=O)(=O)c1ccc(S(=O)(=O)N2CCN(CCC#N)CC2)cc1 (centres unmarked) | -1.82 |
| O=C(c1ccc(CN2CCOCC2)cc1)N1CCN(c2cccc(Cl)c2)CC1 | 11.5 |
| Oc1cc(C(F)(F)F)nn1-c1nc2ccccc2[nH]1 | 2.31 |
| COC(=O)c1sccc1NC(=O)/C=C/C(=O)O | 0.587 |
| C=CCN(Cc1ccccc1F)C(=O)Nc1ccccc1 | 2.84 |
| O=C1CC(N2CCN(Cc3ccccc3)CC2)C(=O)N1c1ccc(Br)cc1 (centres unmarked) | 0.147 |
| CSc1ccc(-c2nc(CSCC(=O)NC(C)c3ccc4c(c3)OCCO4)c(C)o2)cc1 (centres unmarked) | 3.99 |
| CO/C(O)=C1\C(C)=NC(=S)NC1c1cn(-c2ccccc2)nc1-c1ccc(F)cc1 (centres unmarked) | 3.15 |
| NC(=O)c1c(NC(=O)c2ccc(Cn3cc(Br)cn3)cc2)sc2c1CCCC2 | 6.79 |
| CCOc1ccc(N2C(=O)CC(NCCc3ccccc3Cl)C2=O)cc1 (centres unmarked) | 5.94 |
| COc1ccc(CNc2oc(COc3ccc(OC)cc3)nc2C#N)cc1 | -1.98 |

| SMILES | % Inhibition @ 10 uM [%] |
| --- | --- |
| O=[N+]([O-])c1ccc(N2N=C(c3ccccc3)CC2c2ccccc2)cc1 (centres unmarked) | -4.06 |
| CCOC(=O)c1cc(-c2ccc(F)cc2)n(CC(=O)N(C)Cc2ccccc2)c1C | -0.176 |
| O=C(O)CC(Cc1ccc(Cl)cc1)C(=O)NCc1ccccc1 (centres unmarked) | 1.12 |
| O=C(c1ccncc1)N1CCN(C(=O)c2ccccc2F)CC1 | 2.22 |
| O=C(CSc1nc(O)c2c(n1)CCC2)N1CCCCCC1 | 0.236 |
| O=C(O)C1CSC(c2cccc(OCc3ccccc3)c2)N1 (centres unmarked) | 1.88 |
| CC1=NN(C(=O)CCc2ccccc2)C(O)(c2ccccc2)C1 (centres unmarked) | -6.67 |
| O=C(COc1ccc(Cl)cc1Cl)NCCn1ccc2ccccc21 | -4.16 |
| O=c1cccc(-c2ccc(Br)cc2)o1 | 10 |
| Cc1cc(-c2ccccc2Cl)oc1-c1nn2c(-c3ccoc3C)nnc2s1 | -0.946 |
| O=C(Cn1cnc2cc(Cl)ccc2c1=O)c1cccc2ccccc12 | 5.44 |
| CCCCCCSc1nc(O)cc(=O)n1C | -0.856 |
| COc1ccc(CCN2C(=O)CSC2c2ccc(F)cc2)cc1OC (centres unmarked) | -4.57 |
| O=C(Cn1c(-c2cccs2)cc2ccccc21)N1CCN(c2ccccn2)CC1 | 2.97 |
| CCOc1ccc2nc(NC(=O)CN3C(=S)NC(C)(C)CC3C)sc2c1 (centres unmarked) | -4.67 |
| COc1ccc(CC(=O)NCC2(c3ccc(OC)c(OC)c3)CCCC2)cc1OC | 7.1 |
| Cc1ccccc1CN1CCN(Cc2cccnc2)CC1 | -3.87 |
| CC(C)NC(=O)CCc1nnc2n(CCc3ccccc3)c(=O)c3ccccc3n12 | -0.905 |
| CC1CC(C)CN(c2ncnc3c2nc2n3CCCCC2)C1 (centres unmarked) | 2.01 |
| CC1CCOC(c2coc3ccccc3c2=O)O1 (centres unmarked) | -0.312 |
| CCCNC(=O)c1cc(Cl)cc(Cl)c1NC(=O)c1ccco1 | -0.62 |
| CC(C)(C)c1ccc(C(=O)N2N=C(C(F)F)CC2(O)C(F)F)cc1 (centres unmarked) | -5.07 |

| SMILES | % Inhibition @ 10 uM [%] |
| --- | --- |
| COCCNC(=O)CCCC(=O)n1ncc2cc(C)ccc21 | 5.39 |
| COc1ccccc1C1NCCc2[nH]cnc21 (centres unmarked) | 0.774 |
| CC(C)(C)NS(=O)(=O)c1cn(CC(=O)NC2CCCCC2)cc1S(=O)(=O)NC(C)(C)C | 1.84 |
| Oc1nccc2c1ncn2C1CCCCC1 | -1.2 |
| CCOC(=O)c1ccc(NC(=O)c2cc3c(C)nn(-c4ccccc4)c3s2)cc1 | -1.75 |
| O=C1c2ccccc2NC(c2ccccc2)N1c1ccc(F)cc1 (centres unmarked) | 1.34 |
| CN(C(=O)C1CCN(S(=O)(=O)c2cccc3nonc23)CC1)C1CCCCC1 | 2.8 |
| CCN(Cc1ccccc1)C(=O)Cn1cc2c(n1)-c1c(oc(C(=O)N3CCCC3)c1C)CC2 | -0.804 |
| CC1(C)C=C(c2ccc(/C=C3\CCC/C(=C\c4ccc(C5=CCC(C)(C)NC5(C)C)s4)C3=O)s2)CC(C)(C)N1 | 11.7 |
| CCOC(=O)c1c(NC(=O)CNCCCN2CCOCC2)sc2c1CCCCC2 | 7.75 |
| Cc1ccc(C(=O)COC(=O)c2cc3ccccc3oc2=O)cc1C | 4.95 |
| COC(=O)/C(C#N)=C/c1c(Oc2ccccc2Cl)nc2ccccn2c1=O | 4.06 |
| COc1ccc([C@H]2Oc3ccccc3C[C@H]2O)cc1 | -13.5 |
| Cc1cc(C)nc(SCC(=O)Nc2nc(-c3ccccc3)cs2)n1 | 2.03 |
| CCOc1ccc(C2C(C(=O)OC)=CN(C(C)C)C=C2C(=O)OC)cc1OC | -5.05 |
| CCOC(=O)N1CCc2c(sc3c2C(=O)NC(/C=C\c2ccccc2)N3)C1 (centres unmarked) | 5.65 |
| CN(C)c1ccc(C(=O)Nc2ccc(C#N)cc2)cc1 | -5.11 |
| Cc1cc(N2CCOCC2)nc2ccc(O)cc12 | -0.13 |
| Cc1ccc(CCNC(=O)C2CCN(S(=O)(=O)N(CC(C)C)CC(C)C)CC2)cc1 | -4.83 |
| Cc1ccc(NC(=O)C2CCCCC2)cc1O | 3.29 |
| CCOC(=O)c1nnn(-c2nonc2N)c1-c1ccc(F)cc1 | -1.82 |
